From PubChem BioAssay AID1508623 (National Center for Advancing Translational Sciences (NCATS), 2021)
The whole screen tested about 48,000 compounds, of which about 450 (0.94%) were called active. Not shown: some 19% with an inconclusive outcome. Calls come from the whole dose curve; as a rule, active = well fitted inhibition curve with a large enough effect; inconclusive = small, poorly fitted or top-dose-only effect; inactive = no such curve, though single readings can be large or run the other way. Some of the results follow.

Test: Primary qHTS for Identification of Small Molecule Inhibitors of Huntingtin Promoter Activity; note: nearly all actives have a fitted effect of over 50% in size
Conditions: HEK293 HTT promoter firefly luciferase reporter (activity 0% = vehicle and -100% = no light), 24 h; series mostly up to 57.5 µM; activity change, negative = inhibition: at the top concentration
Procedure, shortened: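 HEK293 Fluc reporter, 2,500 cells/well, 24 h pre-culture; cpds up to 57.5 uM final, 24 h 37 degrees C; Dual-Glo, 10 min RT; normalized vehicle = 0%, zero RLU = -100%.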

Activity change, negative = inhibition, inactive:
CCN1CCN(CCCNC(=O)c2ccc3c(c2)sc2nc(-c4ccc(C)cc4)cn23)CC1 -14.3%
COc1ccc(-c2cc(C)no2)cc1S(=O)(=O)N1CC(C)Oc2ccccc21 (configuration not stated) -11.8%
COc1ccc(-n2c(SCC(=O)NCc3ccccc3)nc3n[nH]c(C)c3c2=N)cc1 -14.4%
CCCn1c(=O)c2sccc2n2c(CCCC(=O)Nc3ccccc3F)nnc12 -10.9%
O=C1CC(c2cccc(F)c2)c2c(n3ncnc3[nH]c2=O)N1 (configuration not stated) -15.8%
COc1cccc(N2CCN(C(=O)Cn3ncc4c(=O)oc5ccccc5c43)CC2)c1 -3.97%
CCOC(=O)Cn1c(=O)n(C2CCCCC2)c2nc(-c3cccc(C)c3)nc(C(N)=O)c21 -1.94%
COc1cccc(CN2CCc3nc(N4CCN(C)CC4)ncc3C2)c1 -15.2%
CCCNC(C)C(=O)Nc1c(C)csc1C(=O)OC (configuration not stated) 34.3%
COc1ccc(-n2nc(C(=O)N3CCN(c4cccc(C(F)(F)F)c4)CC3)c3c4ccccc4n(C)c3c2=O)cc1Cl -3.01%
COc1cccc(N2CCN(C(=O)Cn3ncc4c5ccccc5n(C)c4c3=O)CC2)c1 0%
Cc1cccc(-c2noc(-c3cc(-c4ccc(F)cc4)n[nH]3)n2)c1 -29.1%
Cc1oc2ncn(C)c(=O)c2c1C(=O)NCc1ccccc1 -20.6%
CNCc1ccc(-c2[nH]c3cc(F)cc4c3c2CCNC4=O)cc1 5.52%
O=C(c1ccccc1Cl)N1CCN(CCc2ccccn2)CC1 -12.4%
COc1ccc2cc3cc(C(=O)Nc4ccccc4C)oc3nc2c1 -17.6%
COc1cccc(C(=O)Nc2ccccc2-c2nnc(-c3ccc(C(C)(C)C)cc3)o2)c1 -15.5%
CCCOC(=O)c1ccc(Nc2nc3ccccc3nc2-n2nc(C)cc2C)cc1 -0.321%
C[C@@H](NC(=O)CN(c1ccccc1)S(=O)(=O)N(C)C)c1ccccc1 -3.11%
Cc1ccc(NC(=O)Nc2ccc3nc(N4CCN(C)CC4)cc(C)c3c2)cc1C -13%
Cc1ccccc1NC(=O)c1ccc(F)c(S(=O)(=O)NC2CCCC2)c1 -37.2%
CCN1CCN(C(=O)c2ccc3c(c2)N(Cc2ccccc2F)C(=O)c2ccccc2S3(=O)=O)CC1 -10.3%
COc1cccc(N(C)C(=S)Oc2ccc3c(c2)CCCC3)n1
COc1cc(NS(=O)(=O)c2ccc(NC(=O)c3ccc(C(C)=O)cc3)cc2)nc(OC)n1 -2.87%
CCOC(=O)c1cccc(NC(=O)N2CC(CC)Oc3ccccc32)c1 (configuration not stated) -7.14%
Cc1cccc(-n2ncc(C(=O)NCc3ccco3)c2C2CCN(C(=O)OC(C)(C)C)CC2)c1 -19.5%
CCc1nn(CC(=O)NCCN(CC)CC)c(=O)c2cc3occc3n12 -5.83%
